About 230 (0.21%) of roughly 110,000 compounds showed an effect of 50% or more. The list shows a part of the results.
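Also: 30 min substrate incubation versus DMSO and 10 µM JCP410 controls.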

For this experiment, the target named is DPAP1 (Plasmodium falciparum, UniProt Q8IIJ9). The experiment is described as follows: primary screen, percent inhibition; read by cleavage of a fluorogenic dipeptide substrate; higher = more effect of the substance. More on the design: species or system P. falciparum D10 trophozoite lysates; single well.
Chain of DPAP1 (Q8IIJ9 whole entry, looked up): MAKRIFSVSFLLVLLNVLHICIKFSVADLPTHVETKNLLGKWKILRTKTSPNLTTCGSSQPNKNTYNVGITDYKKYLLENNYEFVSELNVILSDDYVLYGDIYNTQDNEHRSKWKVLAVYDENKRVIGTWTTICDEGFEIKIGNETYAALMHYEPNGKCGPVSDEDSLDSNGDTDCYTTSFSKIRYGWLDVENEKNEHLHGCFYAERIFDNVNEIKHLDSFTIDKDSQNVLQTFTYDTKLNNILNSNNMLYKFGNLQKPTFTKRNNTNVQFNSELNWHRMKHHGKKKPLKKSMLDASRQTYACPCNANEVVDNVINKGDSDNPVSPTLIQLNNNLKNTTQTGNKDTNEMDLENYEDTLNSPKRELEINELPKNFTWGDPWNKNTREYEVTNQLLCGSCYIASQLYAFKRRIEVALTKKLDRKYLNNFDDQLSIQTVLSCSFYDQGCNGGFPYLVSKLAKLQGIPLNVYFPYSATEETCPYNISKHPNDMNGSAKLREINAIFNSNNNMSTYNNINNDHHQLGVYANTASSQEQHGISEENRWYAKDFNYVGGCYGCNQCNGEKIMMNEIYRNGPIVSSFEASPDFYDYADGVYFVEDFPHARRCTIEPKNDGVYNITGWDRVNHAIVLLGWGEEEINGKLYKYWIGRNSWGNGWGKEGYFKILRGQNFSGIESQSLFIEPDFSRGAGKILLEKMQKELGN
Turning to `CCC(C)(C)C1CCc2c(sc(NC(=O)CCCC(=O)O)c2C(N)=O)C1` (stereo not shown), the “% Inhibition @ 10 uM” value is on record as 2.38%.
To `COC(=O)C1=CN(CC2CCCO2)C=C(C(=O)OC)C1c1ccsc1` (stereo not shown) belongs -3.41%.
Turning to `O=C(c1cccs1)N1CCN(CCN2C(=O)c3cccc4cccc(c34)C2=O)CC1`, the “% Inhibition @ 10 uM” value came out at 5.09%.
Consider `CC(=O)Nc1ccc(NC(=O)COc2ccc3ccccc3c2Br)cc1`, for which the “% Inhibition @ 10 uM” value amounted to 1.03%.
For `Cc1ccc(OCC(=O)Nc2nnc(S(=O)(=O)N(C)Cc3ccco3)s2)cc1C`, the “% Inhibition @ 10 uM” value was 2.25%.
On to `CCCC/N=C(\N)C(C)c1ccc(CC(C)C)cc1` (stereo not shown), for which the “% Inhibition @ 10 uM” value is on record as 2.24%.
Consider `N=c1c(C(=O)NCCN2CCOCC2)cc2c(=O)n3ccccc3nc2n1Cc1cccnc1`, for which the “% Inhibition @ 10 uM” value was -3.27%.
Regarding `CCCCNC(=O)c1c(C)[nH]c(C(=O)OCC)c1C`, the “% Inhibition @ 10 uM” value is given as 1.72%.
In the case of `COc1ccc(CN2C(=O)NC(=O)/C(=C\c3ccco3)C2=O)cc1`, the “% Inhibition @ 10 uM” value is reported as 3.95%.
Consider `COc1ccccc1C(=O)Nc1cc(-c2nc3cc(Cl)ccc3o2)ccc1C`, for which the “% Inhibition @ 10 uM” value came to 1.08%.
As for `CCS(=O)(=O)N1CCC(C(=O)NCC2CCCO2)CC1` (stereo not shown), the “% Inhibition @ 10 uM” value stood at 0.302%.
Consider `Cc1ccc(-n2nc3c(=O)n(CCCC(=O)NCc4ccc(Cl)cc4)nc(C)c3c2C)cc1`, for which the “% Inhibition @ 10 uM” value is -5.35%.
With `Cc1ccc2nc(NC3CCCCCC3)c3nncn3c2c1`, the “% Inhibition @ 10 uM” value is recorded as -4.21%.
Consider `c1ccc(-c2noc(CSc3nnnn3C3CCCCC3)n2)cc1`, for which the “% Inhibition @ 10 uM” value came to 2.95%.
For `COc1ccc(-c2cc(CCCC(=O)NCCc3cccs3)no2)cc1`, the “% Inhibition @ 10 uM” value is -3.1%.
Consider `CCc1ccc2nc(N3CCC(C(=O)NCCN4CCCCC4C)CC3)sc2c1` (stereo not shown), for which the “% Inhibition @ 10 uM” value is recorded as -6.4%.
`Cc1ccsc1CCNS(=O)(=O)c1cc(Br)cnc1N`: the “% Inhibition @ 10 uM” value was -2.84%.
The result for `CCN(CC)C(=O)C1CC(c2ccccc2F)=NO1` (stereo not shown) reads -5.79%; that for `O=C(NC(c1ccccc1)c1ccccc1)c1ccccn1`, -5.16%; that for `COc1ccccc1CCNC(=O)CCCn1ccc2cc(S(=O)(=O)N3CCCC3)ccc21`, 1.11%.
Regarding `CC(C)n1c2ccc(F)cc2c2nc3ccccc3nc21`, the “% Inhibition @ 10 uM” value is on record as -4.62%.
On to `CCN1CCCC1CNC(=O)c1cccc2c1SCCC2=O` (stereo not shown), for which the “% Inhibition @ 10 uM” value is reported as 0.0845%.
Consider `CCOC(=O)N1CCN(CC(O)COc2ccc(CC)cc2)CC1` (stereo not shown), for which the “% Inhibition @ 10 uM” value was 7.39%.
Turning to `Cn1c(=O)c2c(ncn2CC(=O)NC(C)(C)C)n(C)c1=O`, the “% Inhibition @ 10 uM” value was determined as 0.611%.
On to `O=C(COc1ccccc1)NCc1ccncc1`, for which the “% Inhibition @ 10 uM” value is on record as -1.95%.
Turning to `Cc1coc2cc3oc(=O)c(CCC(=O)NCCc4ccccc4F)c(C)c3cc12`, the “% Inhibition @ 10 uM” value is 2.54%.
The result for `COc1cccc(CC(NC(=O)OCc2ccccc2)C(=O)NCC#N)c1` (stereo not shown) reads -4.72%; that for `Cc1ccc(N(CC(=O)Nc2ccc(Cl)cc2)S(C)(=O)=O)c(C)c1`, 0.793%.
As for `CCOP(=O)(CN1CCOCC1)OCC`, the “% Inhibition @ 10 uM” value is recorded as -3.65%.
For `CCOC(=O)C1=C(CN2CCc3ccccc3C2)NC(=O)NC1c1cccc(OC)c1OC` (stereo not shown), the “% Inhibition @ 10 uM” value was 2.12%.
The result for `C=CCN1C(=O)S/C(=C\c2ccc(OC(C)C(=O)O)c(OC)c2)C1=O` (stereo not shown) reads -0.105%.
In the case of `COc1ccc(C(=O)Nc2ccccn2)cc1`, the “% Inhibition @ 10 uM” value was -1.63%.
`Cc1ccc(S(=O)(=O)Nc2cc3c4c(oc3c3ccccc23)CCCC4=O)cc1`: the “% Inhibition @ 10 uM” value was found to be 1.64%.
In the case of `COCCNC(=O)c1ccc(-c2nn(C)c(=O)c3ccccc23)cc1`, the “% Inhibition @ 10 uM” value is given as -1.43%.
Turning to `CCSc1nc(O)c2c(n1)N=C1CCCC(O)=C1C2c1ccccc1OC` (stereo not shown), the “% Inhibition @ 10 uM” value is 2.06%.
To `Cc1nc(NC(=O)CCn2cnnn2)sc1C` belongs 5.02%; to `Cc1nn(CC(=O)NCc2ccccc2F)c(=O)c2nn(-c3ccccc3)c(C)c12`, -1.21%.
Regarding `CC1CC(C)CN(C(=O)Cn2ncc3c4ccccc4n(C)c3c2=O)C1` (stereo not shown), the “% Inhibition @ 10 uM” value is reported as 1.41%.
As to `COC(=O)c1ccc(/C=N/n2cnnc2)cc1`, the “% Inhibition @ 10 uM” value is -3.98%.
With `CCN(CC)c1ccc(C=C(C#N)C#N)c(OC(C)=O)c1`, the “% Inhibition @ 10 uM” value is on record as -2.03%.
Regarding `O=C(NCc1ccccc1)c1ccc2nc(O)c(-c3ccccc3)c(O)c2c1`, the “% Inhibition @ 10 uM” value came to 5.49%.
On to `COCCn1c(CN2CCCCC2)nc2c1c(=O)n(C)c(=O)n2C`, for which the “% Inhibition @ 10 uM” value is reported as 0.317%.
To `O=C(O)CCCc1c(-[n+]2ccccc2)[nH]c2ccccc12` belongs 3.04%; to `CN1CCc2c(sc3nc(S)nc(N)c23)C1`, 23.8%.
Turning to `O=C(Nc1ccc(Cl)c(Cl)c1)c1cnccn1`, the “% Inhibition @ 10 uM” value is on record as -1.56%.
To `CCN(C(=O)c1cc2ccccc2oc1=O)c1ccccc1` belongs 1.7%; to `COc1ccc(CNCC2CCCO2)cc1` (stereo not shown), 4.22%; to `O=C(CSCC(=O)Nc1cccc(C(F)(F)F)c1)Nc1ccc(F)cc1`, 0.161%.
As for `CC1(C)Cc2c(c(-c3ccco3)nc3sc4c(N5CCCCC5)ncnc4c23)CO1`, the “% Inhibition @ 10 uM” value was -1.33%.
To `Clc1cccc(OCCCCN2CCCC2)c1` belongs -12%.
To `Cc1cc(OCC(=O)Nc2ccc(CC#N)cc2)cc(C)c1Cl` belongs -1.52%.
Take `CC1=C(C(=O)OCCc2ccccc2)C(c2ccc3c(c2)OCO3)C2=C(O)CC(C)(C)CC2=N1` (stereo not shown): the “% Inhibition @ 10 uM” value came out at 5.94%.
Take `O=C1C2C3C=CC(C4C=CC43)C2C(=O)N1c1ccccc1` (stereo not shown): the “% Inhibition @ 10 uM” value was determined as 3.93%.
As for `CC12CC3CC(C)(C1)CC(OCCNC(=O)c1nc(-c4cccnc4)no1)(C3)C2`, the “% Inhibition @ 10 uM” value came to 4.74%.
For `CC1CCN(S(=O)(=O)c2ccc(NC(=O)c3ccc(Cl)c(Cl)c3)cc2)CC1`, the “% Inhibition @ 10 uM” value is -6.75%.
Regarding `Cc1cccc(NC(=O)c2sc3nc(N)c(C#N)cc3c2N)c1`, the “% Inhibition @ 10 uM” value is 25.1%.
To `O=C(Nc1ccc([N+](=O)[O-])cc1)c1cccc(S(=O)(=O)NCc2ccccc2)c1` belongs -3.52%.
To `Nc1nnnn1/N=C/c1ccccc1C(F)(F)F` belongs 6.5%; to `COC(=O)c1cc(Cl)c(C(=O)OC)cc1Cl`, 7.5%.
`COc1ccc2c(C)c(CCC(=O)NCc3ccc4c(c3)OCO4)c(=O)oc2c1`: the “% Inhibition @ 10 uM” value is reported as 2.54%.
Take `COc1ccc2c(c1)C1=NN(/C(C)=C/C(C)=O)C(c3ccc([N+](=O)[O-])cc3)C1CC2` (stereo not shown): the “% Inhibition @ 10 uM” value stood at 4.12%.
For the compound `c1ccc(Oc2nc(-c3ccncc3)nc3ccccc23)cc1`, the “% Inhibition @ 10 uM” value is reported as -4.39%.
Turning to `COc1ccc(CCNC(=O)C2CCN(S(=O)(=O)c3cccc4nsnc34)CC2)cc1OC`, the “% Inhibition @ 10 uM” value is -7.16%.
Turning to `Cc1cccc(NC(=O)CN2C(=O)S/C(=C/c3cccs3)C2=O)c1`, the “% Inhibition @ 10 uM” value turned out to be 2.13%.
Turning to `O=C(CCCCCN1C(=O)c2ccccc2C1=O)Nc1cccc(C(F)(F)F)c1`, the “% Inhibition @ 10 uM” value is recorded as -0.424%.
On to `NC(=O)Cn1nnc(-c2ccc(OCc3cc4c(cc3Br)OCO4)cc2)n1`, for which the “% Inhibition @ 10 uM” value worked out at 3.68%.
The result for `Cn1c2c(c(=O)n(C)c1=O)C(c1cccc(F)c1)C1C(=O)c3ccccc3C1=N2` (stereo not shown) reads 6.1%; that for `COc1ccc(C(=O)Nc2nc3n(n2)C(c2ccccc2)C=C(c2ccccc2)N3)cc1` (stereo not shown), -3.96%; that for `COc1ccccc1C1C=C(c2cccnc2)Nc2nnnn21` (stereo not shown), -1.46%.
On to `CC(C)NCC(O)COc1cc2c(cn1)CCCC2` (stereo not shown), for which the “% Inhibition @ 10 uM” value is -0.424%.
To `CCCCSc1nn2c(=O)c(C)nnc2s1` belongs -7.96%.
`O=C1C2C(c3ccccc3)OC3(C(=O)c4ccccc4C3=O)C2C(=O)N1c1cccc(Cl)c1` (stereo not shown): the “% Inhibition @ 10 uM” value is given as 5.26%.
To `CC1CC(C)CN(C(=O)c2cc3c(O)nc4ccccc4c3n2C)C1` (stereo not shown) belongs -5.1%; to `O=C(O)c1ccc(S(=O)(=O)c2ccccc2)cc1`, -1.77%; to `COc1ccc(-c2nnc3sc(NC(=O)C(C)Oc4ccccc4)nn23)cc1OC` (stereo not shown), 2.81%.
On to `Cc1c(C(=O)NCCCN2CCOCC2)oc2ccc3c(c12)C=CC1(CCCC1)O3`, for which the “% Inhibition @ 10 uM” value turned out to be 13.3%.
`O=C(CSc1ccc(-c2cccs2)nn1)NCc1ccc(F)cc1`: the “% Inhibition @ 10 uM” value is listed as -0.822%.
For `O=C(Nc1sc2c(c1C(=O)O)CCCC2)c1ccc(-c2ccccc2)cc1`, the “% Inhibition @ 10 uM” value is on record as -2.13%.
The result for `Cn1nc(-c2ccc(Cl)cc2)c2cc(C(=O)N3CCOCC3)sc21` reads -6.89%.
The result for `CCOc1ccc(CCNC(=O)C2=CCN(S(=O)(=O)c3ccc(F)cc3)CC2)cc1OCC` reads -5.19%.
Turning to `O=C(NCc1ccc2c(c1)OCO2)C(Cc1ccccc1)NS(=O)(=O)c1cccc2nsnc12` (stereo not shown), the “% Inhibition @ 10 uM” value worked out at 2%.
The result for `COc1ccc(Cl)cc1C(=O)Nc1ccccc1F` reads 1.5%; that for `COc1ccccc1NC(=O)c1cc(Cl)ccc1OC`, 1.03%.
The result for `CN(C)CCCNc1nc(-c2ccccc2O)nc2ccccc12` reads 4.08%; that for `CCN1CCN(C(=O)Nc2cn(CC(C)C)c(=O)c3ccccc23)CC1`, -3.26%; that for `O=C(NC(c1ccccc1)c1ccccc1)C(=O)c1c[nH]c2ccccc12`, 1.03%.
On to `O=C(Nc1ccc(F)cc1)N1CCN(C(=O)c2ccco2)CC1`, for which the “% Inhibition @ 10 uM” value turned out to be 2.66%.
In the case of `Cc1cc2c(s1)CCCCc1nnnn1-2`, the “% Inhibition @ 10 uM” value is -8.28%.
Turning to `CC(Nc1ncnc2c1cnn2C)c1ccccc1` (stereo not shown), the “% Inhibition @ 10 uM” value is listed as 1.58%.
To `CC12CCCC(=O)C1C(c1ccccc1)NC2c1ccccc1` (stereo not shown) belongs -4.75%; to `COc1ccc(CC(C)N[C@H]2CC[C@H](O)CC2)cc1OC` (stereo partly shown), 3.19%.
As for `CCCCNC(=O)CSc1nc2nnc(C)c-2c(N)n1-c1cccc(OC)c1`, the “% Inhibition @ 10 uM” value was 1.2%.
Take `Clc1cccc(Nc2nc3nonc3nc2N2CCOCC2)c1`: the “% Inhibition @ 10 uM” value stood at 5.66%.
To `Cc1ccc(C)c(-c2c(C#N)c(N)nc3c2CCCCC3)c1` belongs -2.21%; to `O=C(Nc1ccc(Cl)cc1)N1CCN(c2ccccc2F)CC1`, 2.22%.
As to `CCCSc1ncc(Cl)c(C(=O)Nc2nc3ccc(OC)cc3s2)n1`, the “% Inhibition @ 10 uM” value is listed as -0.45%.
`CC1CCCN(CC(O)COc2ccccc2F)C1` (stereo not shown): the “% Inhibition @ 10 uM” value is 12.3%.
With `CC1CCCC(C)N1C(=O)c1cc(-c2ccc3c(c2)OCO3)on1` (stereo not shown), the “% Inhibition @ 10 uM” value is on record as -0.591%.
To `COc1ccc(-c2nc(CSc3nc(O)c4c(n3)CCCC4)c(C)o2)cc1` belongs -1.21%.
Regarding `Cn1cccc1Cc1nnc(SCC(=O)NCC2CCCO2)n1-c1ccc(Cl)cc1` (stereo not shown), the “% Inhibition @ 10 uM” value is on record as 3.75%.
Consider `CC(=O)N1N=C(c2ccccc2O)CC1c1ccc(Cl)cc1` (stereo not shown), for which the “% Inhibition @ 10 uM” value came out at 2.06%.
To `Cc1nn(CC(=O)NC2CCCC2)c2ccccc12` belongs -2.88%; to `O=C(O)c1ccccc1NC(=O)C1CCCC1`, 1.93%.
